Data from PMC9911399, “Two distinct binding modes provide the RNA-binding protein RbFox with extraordinary sequence specificity”.
Where a chain is given by its changes, count along the chain named. The list shows a part of the results.

T1: RBFOX1 RRM RbFoxmut (Fox-RRM*) (Homo sapiens, UniProt Q9NWB1 109-208, R118D;E147R;N151S;E152T)
T1 sequence: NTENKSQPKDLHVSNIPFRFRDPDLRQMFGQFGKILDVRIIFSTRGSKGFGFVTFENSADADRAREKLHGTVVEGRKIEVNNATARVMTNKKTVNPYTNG

B1: GGGAUAC (DNA:RNA)
RNA: GGGAGACCGGAAUUCAGAUUGUCCGGGAUACUUAAAUCCCGUCGUAGCCACCA
DNA 1: CAATCTGAATTCCGGTCTCCC
DNA 2: TGGTGGCTACGACGGGATT
B2: CUCGCGA (DNA:RNA)
RNA: GGGAGACCGGAAUUCAGAUUGUCCCUCGCGAUUAAAUCCCGUCGUAGCCACCA
DNA 1: CAATCTGAATTCCGGTCTCCC
DNA 2: TGGTGGCTACGACGGGATT
B3: AUGCGAC (DNA:RNA)
RNA: B1 RNA with G25A, G26U, A28C, U29G
DNA 1: CAATCTGAATTCCGGTCTCCC
DNA 2: TGGTGGCTACGACGGGATT
B4: CGCCCUC (DNA:RNA)
RNA: B2 RNA with U26G, G28C, G30U, A31C
DNA 1: CAATCTGAATTCCGGTCTCCC
DNA 2: TGGTGGCTACGACGGGATT
B5: UUACGAU (DNA:RNA)
RNA: B2 RNA with C25U, C27A, G28C, C29G, G30A, A31U
DNA 1: CAATCTGAATTCCGGTCTCCC
DNA 2: TGGTGGCTACGACGGGATT
B6: AUGGUGA (DNA:RNA)
RNA: B2 RNA with C25A, C27G, C29U
DNA 1: CAATCTGAATTCCGGTCTCCC
DNA 2: TGGTGGCTACGACGGGATT
B7: CGUGCCU (DNA:RNA)
RNA: B2 RNA with U26G, C27U, G30C, A31U
DNA 1: CAATCTGAATTCCGGTCTCCC
DNA 2: TGGTGGCTACGACGGGATT
B8: UUAAACU (DNA:RNA)
RNA: B2 RNA with C25U, C27A, G28A, C29A, G30C, A31U
DNA 1: CAATCTGAATTCCGGTCTCCC
DNA 2: TGGTGGCTACGACGGGATT
B9: GCGUUGA (DNA:RNA)
RNA: B1 RNA with G26C, A28U, A30G, C31A
DNA 1: CAATCTGAATTCCGGTCTCCC
DNA 2: TGGTGGCTACGACGGGATT
B10: GUCCUUG (DNA:RNA)
RNA: B2 RNA with C25G, G28C, C29U, G30U, A31G
DNA 1: CAATCTGAATTCCGGTCTCCC
DNA 2: TGGTGGCTACGACGGGATT
B11: GGGGCCC (DNA:RNA)
RNA: B1 RNA with A28G, U29C, A30C
DNA 1: CAATCTGAATTCCGGTCTCCC
DNA 2: TGGTGGCTACGACGGGATT
B12: CGCGGCC (DNA:RNA)
RNA: B2 RNA with U26G, C29G, G30C, A31C
DNA 1: CAATCTGAATTCCGGTCTCCC
DNA 2: TGGTGGCTACGACGGGATT
B13: GCACCUU (DNA:RNA)
RNA: B2 RNA with C25G, U26C, C27A, G28C, G30U, A31U
DNA 1: CAATCTGAATTCCGGTCTCCC
DNA 2: TGGTGGCTACGACGGGATT
B14: AGGACGU (DNA:RNA)
RNA: B1 RNA with G25A, U29C, A30G, C31U
DNA 1: CAATCTGAATTCCGGTCTCCC
DNA 2: TGGTGGCTACGACGGGATT
B15: GUAAAGG (DNA:RNA)
RNA: B2 RNA with C25G, C27A, G28A, C29A, A31G
DNA 1: CAATCTGAATTCCGGTCTCCC
DNA 2: TGGTGGCTACGACGGGATT
B16: CGCCCCG (DNA:RNA)
RNA: B2 RNA with U26G, G28C, G30C, A31G
DNA 1: CAATCTGAATTCCGGTCTCCC
DNA 2: TGGTGGCTACGACGGGATT
B17: UAGACAC (DNA:RNA)
RNA: B1 RNA with G25U, G26A, U29C
DNA 1: CAATCTGAATTCCGGTCTCCC
DNA 2: TGGTGGCTACGACGGGATT
B18: GAAACCG (DNA:RNA)
RNA: B1 RNA with G26A, G27A, U29C, A30C, C31G
DNA 1: CAATCTGAATTCCGGTCTCCC
DNA 2: TGGTGGCTACGACGGGATT
B19: AAGCGUC (DNA:RNA)
RNA: B1 RNA with G25A, G26A, A28C, U29G, A30U
DNA 1: CAATCTGAATTCCGGTCTCCC
DNA 2: TGGTGGCTACGACGGGATT
B20: CCGAGAC (DNA:RNA)
RNA: B1 RNA with G25C, G26C, U29G
DNA 1: CAATCTGAATTCCGGTCTCCC
DNA 2: TGGTGGCTACGACGGGATT
B21: CGGUUAG (DNA:RNA)
RNA: B1 RNA with G25C, A28U, C31G
DNA 1: CAATCTGAATTCCGGTCTCCC
DNA 2: TGGTGGCTACGACGGGATT
B22: UAAAUUU (DNA:RNA)
RNA: B1 RNA with G25U, G26A, G27A, A30U, C31U
DNA 1: CAATCTGAATTCCGGTCTCCC
DNA 2: TGGTGGCTACGACGGGATT
B23: CGGUCGU (DNA:RNA)
RNA: B2 RNA with U26G, C27G, G28U, A31U
DNA 1: CAATCTGAATTCCGGTCTCCC
DNA 2: TGGTGGCTACGACGGGATT
B24: UUGGUGG (DNA:RNA)
RNA: B2 RNA with C25U, C27G, C29U, A31G
DNA 1: CAATCTGAATTCCGGTCTCCC
DNA 2: TGGTGGCTACGACGGGATT
B25: ACAGGUU (DNA:RNA)
RNA: B2 RNA with C25A, U26C, C27A, C29G, G30U, A31U
DNA 1: CAATCTGAATTCCGGTCTCCC
DNA 2: TGGTGGCTACGACGGGATT
B26: UAGCGCC (DNA:RNA)
RNA: B1 RNA with G25U, G26A, A28C, U29G, A30C
DNA 1: CAATCTGAATTCCGGTCTCCC
DNA 2: TGGTGGCTACGACGGGATT
B27: CGCCGGU (DNA:RNA)
RNA: B2 RNA with U26G, G28C, C29G, A31U
DNA 1: CAATCTGAATTCCGGTCTCCC
DNA 2: TGGTGGCTACGACGGGATT
B28: CACGAAC (DNA:RNA)
RNA: B2 RNA with U26A, C29A, G30A, A31C
DNA 1: CAATCTGAATTCCGGTCTCCC
DNA 2: TGGTGGCTACGACGGGATT
B29: UCAUUCU (DNA:RNA)
RNA: B1 RNA with G25U, G26C, G27A, A28U, A30C, C31U
DNA 1: CAATCTGAATTCCGGTCTCCC
DNA 2: TGGTGGCTACGACGGGATT
B30: CAUCGUU (DNA:RNA)
RNA: B2 RNA with U26A, C27U, G28C, C29G, G30U, A31U
DNA 1: CAATCTGAATTCCGGTCTCCC
DNA 2: TGGTGGCTACGACGGGATT
B31: GUCCUAA (DNA:RNA)
RNA: B2 RNA with C25G, G28C, C29U, G30A
DNA 1: CAATCTGAATTCCGGTCTCCC
DNA 2: TGGTGGCTACGACGGGATT

These binders were tested against T1, RBFOX1 RRM RbFoxmut (Fox-RRM*) (assay: EMSA; HiTS-Eq, 1 nM pool, 10 min; buffer printed only for the single-RNA assays: 10 mM Tris pH 7.5, 150 mM NaCl, 3.4 mM EDTA, 0.001% NP-40, 30 C). Conditions: tags: His6 N-terminal (pET28a); label: 5' 32P.
Method in brief: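 Purified wild-type or mutant RbFox RRM at increasing concentrations was equilibrated with 1 nM of 5′-radiolabelled RNA carrying 7 randomized nucleotides for 10 min in 50 µL. Unbound RNA was separated by 8% native PAGE and sequenced. Relative association constants came from read-count changes of each RNA species compared with the control reaction, normalised to the cognate motif.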

Row | Binder | binding signal
1 | B1 | 0.103 KA relative to UGCAUGU
2 | B2 | 0.0813 KA relative to UGCAUGU
3 | B3 | 0.0727 KA relative to UGCAUGU
4 | B4 | 0.0492 KA relative to UGCAUGU
5 | B5 | 0.0651 KA relative to UGCAUGU
6 | B6 | 0.126 KA relative to UGCAUGU
7 | B7 | 0.11 KA relative to UGCAUGU
8 | B8 | 0.0636 KA relative to UGCAUGU
9 | B9 | 0.108 KA relative to UGCAUGU
10 | B10 | 0.116 KA relative to UGCAUGU
11 | B11 | 0.0909 KA relative to UGCAUGU
12 | B12 | 0.328 KA relative to UGCAUGU
13 | B13 | 0.106 KA relative to UGCAUGU
14 | B14 | 0.101 KA relative to UGCAUGU
15 | B15 | 0.0554 KA relative to UGCAUGU
16 | B16 | 0.077 KA relative to UGCAUGU

Row | Binder | binding signal
17 | B17 | 0.0515 KA relative to UGCAUGU
18 | B18 | 0.0569 KA relative to UGCAUGU
19 | B19 | 0.0855 KA relative to UGCAUGU
20 | B20 | 0.0883 KA relative to UGCAUGU
21 | B21 | 0.111 KA relative to UGCAUGU
22 | B22 | 0.0739 KA relative to UGCAUGU
23 | B23 | 0.104 KA relative to UGCAUGU
24 | B24 | 0.126 KA relative to UGCAUGU
25 | B25 | 0.108 KA relative to UGCAUGU
26 | B26 | 0.147 KA relative to UGCAUGU
27 | B27 | 0.104 KA relative to UGCAUGU
28 | B28 | 0.0998 KA relative to UGCAUGU
29 | B29 | 0.0768 KA relative to UGCAUGU
30 | B30 | 0.125 KA relative to UGCAUGU
31 | B31 | 0.0984 KA relative to UGCAUGU
